{"source": "patent US5871946A", "about": "“Method for determining activity of enzymes in metabolically active whole cells” (priority 1995, dated 1999)", "key": {"MONOCYTES": {"system": "MONOCYTES", "experiment": "Disease to normal ratio of enzyme activity, monocytes (Table 5)", "assay_type": "cell-based, human", "from_the_text": "(§1) A normal in house adult donor pool was drawn, recording sex and determining that no known disease state was present at the time of sample draw. Criteria for rejecting samples included patients under medication, patients with infection or inflammation of any type, colds and flu as well as any known medical illness such as cancer, heart ailment and high blood pressure. A donor list of 75 patients has been developed and a mean and 2 sd range established. A subgroup of \"super normals\" was developed from this list by examining the 75 patients to determine which group falls closest to the mean for all enzymes in all cell types tested. These patients were used as the \"wellness index\" or best group of \"normalcy\" patients. If a study required the use of children or newborns then this same format was used to develop a data base for these age groups."}, "LYMPHOCYTES": {"system": "LYMPHOCYTES", "experiment": "Disease to normal ratio of enzyme activity, lymphocytes (Table 5)", "assay_type": "cell-based, human", "from_the_text": "as §1"}}, "note": "Numbered stars: 1 amine (or outer) side, 2 acyl side, 3 side chain; on linkers, the order of the positions; unused ones are H or OH. Bridge positions count the residues as written; N and C are the ends. Peptide text beside a SMILES is read from it. I, II: the chains in the order shown. Rhodamine110 = O=C1OC2(c3ccc(N[*:1])cc3Oc3cc(N[*:2])ccc32)c2ccccc21"}
{"compound": "O=C1OC2(c3ccc(OP(=O)(O)O)cc3Oc3cc(OP(=O)(O)O)ccc32)c2ccccc21", "note": "[DPO4, (PO4)2 fluorescein]", "values": [{"measurement": "Inflam. Dis. Monos", "setting": "MONOCYTES", "result": 0.28}, {"measurement": "Inflam Dis Lymphs", "setting": "LYMPHOCYTES", "result": 0.45}]}
{"compound": "O=C(NCC(=O)N1CCC[C@H]1C(=O)Nc1ccc2c(c1)Oc1cc(NC(=O)[C@@H]3CCCN3C(=O)CNC(=O)OCc3ccccc3)ccc1C21OC(=O)c2ccccc21)OCc1ccccc1", "note": "[Z-GP-M, (carbobenzyloxycarbonyl-Gly-Pro)2 Rho 110 (modified)]", "values": [{"measurement": "Inflam. Dis. Monos", "setting": "MONOCYTES", "result": 0.73}]}
{"compound": "C[C@H](NC(=O)[C@@H](N)CCCCN)C(=O)Nc1ccc2c(c1)Oc1cc(NC(=O)[C@H](C)NC(=O)[C@@H](N)CCCCN)ccc1C21OC(=O)c2ccccc21", "note": "[KA, (Lys-Ala)2 Rho 110]", "values": [{"measurement": "Inflam. Dis. Monos", "setting": "MONOCYTES", "result": 0.25}, {"measurement": "Inflam Dis Lymphs", "setting": "LYMPHOCYTES", "result": 0.07}]}
{"compound": "CC(C)C[C@H](N)C(=O)Nc1ccc2c(c1)Oc1cc(NC(=O)[C@@H](N)CC(C)C)ccc1C21OC(=O)c2ccccc21", "note": "[LEU, (Leu)2 Rho 110]", "values": [{"measurement": "Inflam. Dis. Monos", "setting": "MONOCYTES", "result": 0.65}, {"measurement": "Inflam Dis Lymphs", "setting": "LYMPHOCYTES", "result": 0.72}]}
{"compound": "CC(=O)Oc1ccc2c(c1)Oc1cc(OC(C)=O)ccc1C21OC(=O)c2ccccc21", "note": "[FDA-NAF, reference compound]", "values": [{"measurement": "Inflam. Dis. Monos", "setting": "MONOCYTES", "result": 0.13}, {"measurement": "Inflam Dis Lymphs", "setting": "LYMPHOCYTES", "result": 0.16}]}
{"compound": "CC(=O)Oc1ccc2c(c1)Oc1cc(OC(C)=O)ccc1C21OC(=O)c2ccccc21", "note": "[FDA, fluorescein diacetate, reference compound]", "values": [{"measurement": "Inflam. Dis. Monos", "setting": "MONOCYTES", "result": 0.47}, {"measurement": "Inflam Dis Lymphs", "setting": "LYMPHOCYTES", "result": 0.80}]}
{"compound": "N=C(N)NCCC[C@H](N)C(=O)NCC(=O)N[C@@H](CCC(=O)O)C(=O)N[C@@H](CO)C(=O)Nc1ccc2c(c1)Oc1cc(NC(=O)[C@H](CO)NC(=O)[C@H](CCC(=O)O)NC(=O)CNC(=O)[C@@H](N)CCCNC(=N)N)ccc1C21OC(=O)c2ccccc21", "note": "(stereo partly drawn) [RGES, (Arg-Gly-Glu-Ser)2 Rho 110] (I: H-RGES / II: H-RGES; linker I:C-II:C via Rhodamine110)", "values": [{"measurement": "Inflam. Dis. Monos", "setting": "MONOCYTES", "result": 0.61}]}
{"compound": "C[C@H](NC(=O)CNC(=O)[C@H](Cc1ccccc1)NC(=O)CN)C(=O)Nc1ccc2c(c1)Oc1cc(NC(=O)[C@H](C)NC(=O)CNC(=O)[C@H](Cc3ccccc3)NC(=O)CN)ccc1C21OC(=O)c2ccccc21", "note": "[GFGA, (Gly-Phe-Gly-Ala)2 Rho 110] (I: H-GFGA / II: H-GFGA; linker I:C-II:C via Rhodamine110)", "values": [{"measurement": "Inflam Dis Lymphs", "setting": "LYMPHOCYTES", "result": 1.40}]}
{"compound": "O=C(NCC(=O)N1CCC[C@H]1C(=O)Nc1ccc2c(c1)Oc1cc(NC(=O)[C@@H]3CCCN3C(=O)CNC(=O)OCc3ccccc3)ccc1C21OC(=O)c2ccccc21)OCc1ccccc1", "note": "[Z-GP, (carbobenzyloxycarbonyl-Gly-Pro)2 Rho 110]", "values": [{"measurement": "Inflam. Dis. Monos", "setting": "MONOCYTES", "result": 0.98}]}
{"compound": "C[C@H](N)C(=O)Nc1ccc2c(c1)Oc1cc(NC(=O)[C@H](C)N)ccc1C21OC(=O)c2ccccc21", "note": "[ALA, (Ala)2 Rho 110]", "values": [{"measurement": "Inflam. Dis. Monos", "setting": "MONOCYTES", "result": 0.94}, {"measurement": "Inflam Dis Lymphs", "setting": "LYMPHOCYTES", "result": 1.07}]}
{"compound": "CC(C)[C@H](N)C(=O)N[C@@H](CCCCN)C(=O)Nc1ccc2c(c1)Oc1cc(NC(=O)[C@H](CCCCN)NC(=O)[C@@H](N)C(C)C)ccc1C21OC(=O)c2ccccc21", "note": "[VK-M, (Val-Lys)2 Rho 110 (modified)]", "values": [{"measurement": "Inflam. Dis. Monos", "setting": "MONOCYTES", "result": 1.87}]}
{"compound": "NCC(=O)Nc1ccc2c(c1)Oc1cc(NC(=O)CN)ccc1C21OC(=O)c2ccccc21", "note": "[GLY, (Gly)2 Rho 110]", "values": [{"measurement": "Inflam. Dis. Monos", "setting": "MONOCYTES", "result": 0.35}, {"measurement": "Inflam Dis Lymphs", "setting": "LYMPHOCYTES", "result": 0.16}]}
